Data on 42 compounds can be found in ChEMBL document CHEMBL4888484, “Replenishing the malaria drug discovery pipeline: Screening and hit evaluation of the MMV Hit Generation Library 1 (HGL1) against asexual blood stage Plasmodium falciparum ,using a nano luciferase reporter read-out” (2022).

Hit rate of the full screen: of about 150,000 compounds, about 540 (0.36%) showed an effect of 50% or more. The list shows a part of the results.

This assay concerns Plasmodium falciparum. The assay can be described thus: Primary screen in NF54 nanoGlo assay, in single point, at 2uM, 72h; a lower Z score goes with more inhibition. Type of assay: functional, Erythrocyte. The settings on record: timepoint 72 hour.
In general, % Inhibition refers to the change of the read-out against control, counted positive when it falls. On to `OCC1CCCN(C2CCCc3ccc(F)cc32)C1` (centres undefined), for which the “% Inhibition” value is -6% and the Z score is recorded as 1.12.

For the compound `C[C@H](NC(=O)c1ccc(Br)o1)c1ccc2c(c1)OCCO2`, the “% Inhibition” value was -8% and the Z score turned out to be 1.36.

Turning to `CO[C@H]1COC[C@H]1NC(=O)NCc1c(C)nc2ccccn12`, the “% Inhibition” value is 3% and the Z score is -0.5.

On to `Cc1ccc(N(CC(=O)N[C@@H](C)CCc2ccccc2)S(=O)(=O)N(C)C)cc1`, for which the “% Inhibition” value is given as -17% and the Z score amounted to 1.53.

Turning to `O=C1c2cc(Nc3ccccc3)c3c4c(cc(Nc5ccccc5)c(c24)C(=O)N1c1ccccc1)C(=O)N(c1ccccc1)C3=O`, the “% Inhibition” value was found to be 3% and the Z score was -0.42.

As to `O=C1CCCN1CC1CCCCN1C(=O)C1CC2C=CC1C2` (centres undefined), the “% Inhibition” value is recorded as -5% and the Z score worked out at 0.43.

As for `N#Cc1ccc(C(=O)NCCc2noc(C3CCCC3)n2)cn1`, the “% Inhibition” value is recorded as -7% and the Z score came to 1.08.

On to `O=C(Nc1cnccn1)C1CC1c1ccc(F)c(F)c1` (centres undefined), for which the “% Inhibition” value is -3% and the Z score is 0.26.

In the case of `C[C@H]1C[C@@H](C(F)F)n2ncc(C(=O)NCC(=O)OC(C)(C)C)c2N1`, the “% Inhibition” value is -10% and the Z score came out at 1.74.

For `Cc1cc(C)nc(Cn2cc(C(N)=O)nn2)c1`, the “% Inhibition” value came out at 5% and the Z score is listed as -0.6.

As to `Cc1ccc(-c2nc3n(CC(=O)Nc4ccc(N(C)C)cc4)c4c(c(=O)n3n2)CCC4)cc1`, the “% Inhibition” value came out at 0% and the Z score is given as -0.04.

For the compound `CC(C)c1cc(C(=O)N[C@H]2CCc3nccn3C2)on1`, the “% Inhibition” value is 1% and the Z score is -0.18.

With `CCC(C)[C@H](NC(=O)COc1ccc(C(=O)COc2ccccc2)c(O)c1)C(=O)O` (some centres undefined), the “% Inhibition” value is reported as -14% and the Z score turned out to be 1.86.

As for `CCn1cc(S(=O)(=O)Nc2cccc3[nH]ncc23)cn1`, the “% Inhibition” value is reported as -16% and the Z score was found to be 1.43.

On to `O=C1CC2CCC(CN1)N2CC(O)CC1CCCC1` (centres undefined), for which the “% Inhibition” value is listed as -3% and the Z score turned out to be 0.26.

Regarding `Cc1ccsc1C(=O)NCc1ccc(-c2nc(C3CC3)no2)s1`, the “% Inhibition” value is on record as -4% and the Z score was 0.77.

As for `Cc1nnnn1-c1ccc(Oc2ccccc2Cl)c(Cl)c1`, the “% Inhibition” value is given as -7% and the Z score was found to be 0.67.

`CC(CCc1cccc(F)c1)N1CCS(=O)(=O)C(C)C1` (centres undefined): the “% Inhibition” value was -2% and the Z score is reported as 0.28.

With `O=C(O)c1cccc(-n2nc([C@H]3CCOC3)nc2Cc2c(F)ccc(F)c2F)c1`, the “% Inhibition” value is reported as -2% and the Z score was found to be 0.42.

Regarding `CC(C)(C)c1nsc(N[C@H]2CCC[C@H]2C(=O)O)n1`, the “% Inhibition” value is on record as -6% and the Z score is reported as 0.9.

For the compound `COC(=O)N1CC[C@H](NC(=O)c2cc(-c3cccc(Cl)c3)[nH]n2)C1`, the “% Inhibition” value was determined as 8% and the Z score is listed as -1.24.

On to `CN(C(=O)Cn1c(=O)n(C)c(=O)c2ccccc21)c1cccc(Cl)c1`, for which the “% Inhibition” value stood at 1% and the Z score is given as -0.23.

`Cc1n[nH]cc1CNC(=O)N1Cc2ccccc2C[C@@H]1C`: the “% Inhibition” value is listed as 2% and the Z score was -0.19.

Turning to `CC(C)(C)c1noc(-c2ccnc(-n3cnc(C(=O)NCc4ccc(F)cc4)c3)c2)n1`, the “% Inhibition” value came out at 33% and the Z score was -3.74.

As for `CCOC(=O)N1CCN(C(=O)c2ccc3c(ccn3C)c2)CC1`, the “% Inhibition” value is -3% and the Z score was 0.44.

For `CN(C)C(=O)c1ccc(S(=O)(=O)N(Cc2ccco2)C2CC2)o1`, the “% Inhibition” value is 6% and the Z score is -0.74.

In the case of `O=C1COc2ccc(S(=O)(=O)NC3CCCCCC3)cc2N1Cc1noc(C2CC2)n1`, the “% Inhibition” value is -8% and the Z score is listed as 1.03.

With `Cc1nc(-c2cccc(C(=O)Nc3ccc(N4CCC(CN(C)C)CC4)cc3)c2)n[nH]1`, the “% Inhibition” value is given as -7% and the Z score is recorded as 1.27.

Take `COC(CNC(=O)N1CCCC2CC1C2(C)C)(OC)c1ccccn1` (centres undefined): the “% Inhibition” value was -12% and the Z score amounted to 2.01.

For the compound `Nc1c(C(=O)N2CCCC2)nsc1C(=O)N1CCN(c2ccc(F)cc2)CC1`, the “% Inhibition” value is reported as -20% and the Z score amounted to 2.3.

Turning to `CC(C)[C@H](CCO)NC(=O)C1CCC(N2CCOCC2)CC1` (some centres undefined), the “% Inhibition” value is -10% and the Z score was 1.84.

`COCCN(CCC(=O)OC)C(=O)c1ccc(F)c(C)c1`: the “% Inhibition” value is 1% and the Z score was -0.1.

On to `Cc1occc1C(=O)Nc1cccnc1-n1cccn1`, for which the “% Inhibition” value is -5% and the Z score was determined as 0.71.

Regarding `Cc1ccccc1OCC(=O)N1C[C@@H](CN2CCCCC2)[C@@H](CO)C1`, the “% Inhibition” value is -9% and the Z score worked out at 1.75.

Regarding `Cc1ccc(NCCCNc2nc(C)nc(C)c2C)nc1`, the “% Inhibition” value was -9% and the Z score was 1.47.

As for `COc1ccc(O)c(-c2ccc(-c3ccn[nH]3)s2)c1`, the “% Inhibition” value is on record as -17% and the Z score stood at 1.86.

Consider `CCC(CNC(=O)C1CC2CCC1O2)Oc1cccc(F)c1` (centres undefined), for which the “% Inhibition” value is on record as -13% and the Z score worked out at 1.32.

Regarding `CCC(C)(CC)c1noc(-c2cccnc2)n1`, the “% Inhibition” value is -5% and the Z score turned out to be 0.72.

As to `Cn1nc(C(=O)NC2CCN(Cc3ccccc3)CC2)c2ccccc2c1=O`, the “% Inhibition” value is reported as 34% and the Z score is -3.81.

Take `C[C@H]1C(=O)N(C)C[C@H](CO)N1C(=O)Cc1cccc(Cl)c1`: the “% Inhibition” value is reported as -19% and the Z score was 2.31.

In the case of `Cc1c(Cl)c(C(F)(F)F)nn1[C@@H](C)C(=O)NC1CCN(C(C)C)CC1`, the “% Inhibition” value was 31% and the Z score is -4.49.

Consider `Cc1cc(NC(=O)c2ccccc2Cl)sc1C(=O)N1CCc2ccccc21`, for which the “% Inhibition” value was -16% and the Z score was 2.48.
